# Results taken from PubChem BioAssay AID1345082 (National Center for Advancing Translational Sciences (NCATS), 2018).
# Among all 94,000 compounds or so, about 4,000 (4.3%) were called active. This list was built around the results that the source calls inconclusive (neither active nor inactive); the mix of calls is not that of the screen. Calls follow the shape of the dose curve; as a rule, active = well fitted inhibition curve with a large enough effect; inconclusive = small, poorly fitted or top-dose-only effect; inactive = no such curve, though single readings can be large or run the other way. Potencies beside an inconclusive call are fits to weak or partial responses and may not hold up.
# Experiment: Cytotoxic Profiling in NIH 3T3 Cell Line of Diverse Libraries Using Quantitative High-Throughput Screening; also: nearly all actives have a fitted effect of over 55% in size
# Settings: NIH 3T3 viability, CellTiter-Glo ATP luminescence, 48-72 h; activity change, negative = cytotoxicity: at 96.7 µM (top of the series); series mostly up to 96.7 µM
# Method in brief: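 ATP-dependent luminescence (CellTiter-Glo) served as the viability signal for NIH 3T3 cells treated with compound for 48 or 72 hr at 37 °C.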
# % is scaled to controls: 0 for no effect and ±100 for the full control effect; potency is read from the fitted curve at half-maximal effect; tags tell the direction and shape of the fitted curve.
SMILES,Potency,"activity change, negative = cytotoxicity",outcome
COc1cccc(CNC(=O)[C@@H]2CCCN2C(=O)c2cccc(-c3ccccc3OC)c2)c1,"inconclusive: 44.7 µM [inhibitor, partial curve, poor fit]",–,–
COc1ccc(C(=O)NCCNC(=O)c2ccc(-c3cccc(OC)c3)cc2)cc1,–,inactive: -22.6%,–
O=C(Cc1c[nH]c2ncc(-c3cccc(O)c3)cc12)N1CCOCC1,"inconclusive: 25.1 µM [inhibitor, full curve, poor fit]",–,–
N#Cc1ccc(S(=O)(=O)N2CCCN(S(=O)(=O)c3ccccc3)CCC(=O)NCC2)cc1,–,inactive: -16.4%,–
O=C(c1ccc2cc[nH]c2c1)N1CCC(N2CC(OCC3CC3)C23CCCCC3)CC1 (centres undefined),"inconclusive: 50.1 µM [inhibitor, partial curve, poor fit]",–,–
CN(C)c1ccc(CN2CCOC[C@H]2c2ncc(-c3ccc(F)cc3F)[nH]2)cc1,"inconclusive: 89.1 µM [inhibitor, partial curve, poor fit]",–,–
CC1(COc2cccnc2)COc2ccc(C(=O)NCCOc3ccccc3)cc2N1 (centres undefined),"inconclusive: 63.1 µM [inhibitor, partial curve, poor fit]",–,–
CN(CC1CCOC1)C(=O)Nc1ccccc1F (centres undefined),–,–,inactive
Cc1cc(F)ccc1NC(=O)CCC1CCCN(Cc2cn[nH]c2-c2cccc(F)c2)C1 (centres undefined),"inconclusive: 79.4 µM [inhibitor, partial curve]",–,–
C=CCNC(=O)[C@@H]1Cc2cn(Cc3c(C)noc3C)c3cccc(c23)[C@H](CC(C)C)N1,active: 112 µM,–,–
Cc1ccc(-c2cc(-c3ccc(=O)[nH]c3)c3cncn3c2)cn1,"inconclusive: 112 µM [inhibitor, single point]",–,–
O=C1CC(c2ccccc2)N(C(=O)COc2ccc(F)cc2)CCCCCCN1 (centres undefined),"inconclusive: 56.2 µM [inhibitor, partial curve, poor fit]",–,–
CCN1c2cc(C(=O)Nc3cc(F)cc(F)c3)ccc2C(=O)N2CCCCC21 (centres undefined),active: 28.2 µM,–,–
CN(C)c1ccc(C(=O)NC2CCN(c3cc(-c4ccccc4)[nH]n3)C2)cc1 (centres undefined),"inconclusive: 79.4 µM [inhibitor, single point]",–,–
O=C(c1ccc(C(F)(F)F)cc1)N1CCC(c2nn(-c3ccccn3)c(=O)[nH]2)CC1,–,inactive: -1.09%,–
Cc1noc(C)c1S(=O)(=O)N1CCC2(CC1)CC(OCC1CC1)CCO2 (centres undefined),"inconclusive: 56.2 µM [inhibitor, partial curve, poor fit]",–,–
COC[C@@H]1CN(C(=O)CCc2ccccc2OC)C[C@H]1c1ccncc1,"inconclusive: 70.8 µM [inhibitor, single point]",–,–
OCc1cccc(-c2ccc3ncc(Nc4cccc(C(F)(F)F)c4)n3n2)c1,active: 50.1 µM,–,–
Cc1ccc(C(=O)N2CC(N(Cc3cccnc3)CC(C)C)C2)s1,"inconclusive: 44.7 µM [inhibitor, partial curve, poor fit]",–,–
Cc1noc(C)c1-c1cc(-c2cccc(N3CCOCC3)c2)cn2cncc12,active: 17.8 µM,–,–
O=C(C1CCCC1)N1Cc2ccccc2CC2(CCCN(Cc3ccccc3)C2)C1 (centres undefined),"inconclusive: 50.1 µM [inhibitor, partial curve, poor fit]",–,–
CCc1ccc(C(=O)NC2CCN(c3cc(-c4ccc(F)cc4)[nH]n3)C2)cc1 (centres undefined),"inconclusive: 50.1 µM [inhibitor, partial curve, poor fit]",–,–

SMILES,Potency,"activity change, negative = cytotoxicity",outcome
Cn1ccc2c(C(=O)NCCc3cnc[nH]3)nc(-c3cnn(Cc4ccccc4)c3)cc21,active: 79.4 µM,–,–
CC1=C[C@@H](CNS(C)(=O)=O)[C@H](C(C)C)C[C@H]1Cc1nc2ccccc2[nH]1,"inconclusive: 126 µM [inhibitor, single point]",–,–
CC(C)c1noc(-c2ccn3c(CNC(=O)c4ccc(F)cc4Cl)nnc3c2)n1,–,inactive: -10.9%,–
Cc1cccc(-c2ccc3c(c2)C(=O)N2CC[C@H](NC(=O)c4cccs4)C[C@H]2C(=O)N3)c1C,"inconclusive: 44.7 µM [inhibitor, partial curve, poor fit]",–,–
Cc1noc(C)c1S(=O)(=O)N1CCC2(CC1)NCCc1c2[nH]c2ccccc12,"inconclusive: 50.1 µM [inhibitor, partial curve, poor fit]",–,–
COc1cccc(F)c1-c1ccc2c(n1)c(=O)ncn2Cc1ccccc1,"inconclusive: 112 µM [inhibitor, single point]",–,–
COc1ccccc1OCc1nc2c(n1Cc1ccccc1)C(=O)N(Cc1ccccc1F)CCN2,"inconclusive: 50.1 µM [inhibitor, partial curve, poor fit]",–,–
CCc1nc2c(c(-c3ccc(OC)cc3)n1)CN(C(=O)c1ccc3c(c1)OCO3)CC2,active: 39.8 µM,–,–
COc1ccc(C2(C(=O)N3C[C@@H](Oc4cccnc4)C[C@H]3C(=O)NC3CC3)CC2)cc1,–,–,inactive
COc1ccc(C(=O)N2CCC(Cc3nncn3Cc3ccccc3)C2)cc1 (centres undefined),"inconclusive: 70.8 µM [inhibitor, single point]",–,–
CC(C)(C)c1ccc(NC(=O)O[C@@H]2CO[C@H]3[C@@H]2OC[C@@H]3Nc2nccc(-c3ccccc3)n2)cc1,–,inactive: -26.9%,–
COc1ccccc1-n1c(=O)c(C(=O)N2CCN(C(=O)Cc3ccccn3)CC2)nc2cccnc21,–,inactive: -6.8%,–
CC(C)C[C@@H]1N[C@H](C(=O)N2CCN(C)CC2)Cc2c[nH]c3cccc1c23,–,inactive: -27.7% [at 174 µM],–
CCCNC(=O)N1CCC2(CCCCO2)CC1,–,inactive: -3.03%,–
Cc1c(F)cccc1NC(=O)Nc1cccc(-c2nnc3n2CCCC3)c1,–,–,inactive
CC(c1nn[nH]n1)n1cc(-c2cc3c(cc2Cl)OCO3)nn1 (centres undefined),–,inactive: 3.33%,–
CN(CC(=O)N1CCC(CCOc2ccccc2F)C1)S(=O)(=O)c1cccs1 (centres undefined),"inconclusive: 39.8 µM [inhibitor, partial curve, poor fit]",–,–
COc1ccc(-c2cc(N3CCCC(NC(=O)c4ccccc4Cl)C3)n[nH]2)cc1 (centres undefined),"inconclusive: 50.1 µM [inhibitor, partial curve, poor fit]",–,–
COc1cc2c(cc1CN1C[C@@H]3CC[C@H](C1)N(CC1CCC1)C3=O)OCCO2,"inconclusive: 44.7 µM [inhibitor, partial curve, poor fit]",–,–
Cc1ccc(OC(=O)N2CCC(COc3ccc4c(cnn4CCC(=O)O)c3)CC2)cc1,–,inactive: -41% [at 138 µM],–
Cc1cccc2nc(C(=O)N3CCn4nc(Cc5ccccc5)cc4C3)cn12,"inconclusive: 79.4 µM [inhibitor, partial curve, poor fit]",–,–
O=C(C[C@@H]1CCNC[C@@H]1Cc1cc(-c2ccccc2)on1)N1CCC(n2c(=O)[nH]c3ccccc32)CC1,"inconclusive: 70.8 µM [inhibitor, single point]",–,–

SMILES,Potency,"activity change, negative = cytotoxicity",outcome
O=[S+]([O-])(Nc1ccccc1)c1ccc2c(c1)OCCN(Cc1ccccn1)C2,"inconclusive: 56.2 µM [inhibitor, partial curve, poor fit]",–,–
COc1cccc(-c2ccc(C(=O)NCCN[S+](=O)([O-])c3cccs3)cc2)c1,"inconclusive: 35.5 µM [inhibitor, partial curve, poor fit]",–,–
COc1ccc(N2CC(C(=O)N3CCC(C(=O)NCc4ccc(C(F)(F)F)cc4)C3)NC2=O)cc1 (centres undefined),inactive,–,–
CC(C)C(=O)Nc1cc(-c2cccnc2)nn1-c1ccccc1,–,inactive: 3.98% [at 138 µM],–
O=C1CCC2(CCN(c3nc4ccccc4s3)CC2)CN1Cc1cccnc1,–,inactive: -25.4%,–
COc1ccc(-c2nnc([C@H]3CCN(Cc4cccc(C#N)c4)C3)o2)cc1,"inconclusive: 112 µM [inhibitor, partial curve, poor fit]",–,–
CCc1cccc(NC(=O)c2ccc3c(c2)N(C)C2CCCCN2C3=O)c1 (centres undefined),"inconclusive: 50.1 µM [inhibitor, partial curve, poor fit]",–,–
CN1C[C@@H](NC(=O)c2ccccn2)C[C@H]1c1nc(-c2ccc3ccccc3c2)no1,"inconclusive: 89.1 µM [inhibitor, partial curve, poor fit]",–,–
CC(=O)Nc1ccc(CN2CCCC(N3CCN(c4ccccc4)CC3)C2)cc1 (centres undefined),–,inactive: -2.08%,–
CC(C)n1cc2cc(C(=O)N3CCSCC3)sc2c1,"inconclusive: 2.51 µM [inhibitor, partial curve, poor fit]",–,–
CCCS(=O)(=O)N1CC(c2nc(CCOc3cccc(C)c3)no2)C1,"inconclusive: 50.1 µM [inhibitor, partial curve, poor fit]",–,–
CNC(=O)c1cc(C)nc2onc(C3CCN(C(=O)N(C)C)C3)c12 (centres undefined),–,inactive: -17.7% [at 138 µM],–
O=C(NCC1CC1)c1cccc(OC2CN(Cc3cccc(F)c3)C2)c1,"inconclusive: 44.7 µM [inhibitor, partial curve, poor fit]",–,–
CCOC(=O)[C@H]1[C@@H](O)C(=O)N(C(C)C)C12CCN(C(=O)c1cc(C)oc1C)CC2,"inconclusive: 79.4 µM [inhibitor, partial curve, poor fit]",–,–
Cc1cc(C)c(CNC(=O)c2nc(-c3ccccc3)cc3c2ccn3C(C)C)c(=O)[nH]1,"inconclusive: 100 µM [inhibitor, partial curve, poor fit]",–,–
O=C(c1ccc(C(F)(F)F)cc1)N1CCCC(C(=O)N2CCCC(c3nc4ccncc4[nH]3)C2)C1 (centres undefined),"inconclusive: 44.7 µM [inhibitor, partial curve, poor fit]",–,–
COc1ccccc1Nc1ccnc(N2CCN(C(=O)C(C)(C)C)CC2)n1,"inconclusive: 25.1 µM [inhibitor, full curve]",–,–
CCCn1c(C)cnc1CC1CCN(C(=O)c2ccccc2F)CC1,–,inactive: -34.2%,–
O=C1CCCN1CCc1nc(C2CCOC2)nn1-c1cccnc1 (centres undefined),–,–,inactive
CC1(CCCCc2ccccc2)COc2ccc(C(=O)N3CC(O)C3)cc2N1 (centres undefined),"inconclusive: 44.7 µM [inhibitor, partial curve, poor fit]",–,–
